Measurements: the supplement of paper PMC7826260
The list shows a part of the results. One pool of 16,384 single-stranded DNAs met each Rep nickase domain in vitro (3 µM enzyme, 1 h, 37 °C); shown is the middle of each 90-letter strand. Numbers give uncut DNA relative to the enzyme-free pool, as log2; the lower, the more was cut; hits are not called. Because reads are shares of a total, they shift together; values above 0 arise when much of the pool is cut.

Tests used:
Test in all cases: uncleaved DNA left, log2 of reads against the no-enzyme library (log2 ratio); higher = less cleavage (more negative = more Rep cleavage of the k-mer); sequences stand for … in CTCGTCCG…ACCGGAGA
[1] = tested on: T1, Rep nickase domain of Muscovy duck circovirus
T1 sequence (Rep 1-111, printed without the tag): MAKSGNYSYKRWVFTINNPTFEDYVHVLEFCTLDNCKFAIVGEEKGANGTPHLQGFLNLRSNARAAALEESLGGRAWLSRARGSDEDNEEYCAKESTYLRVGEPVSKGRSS
Protocol: (§1)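 A pool of 90-nt single-stranded DNAs with seven random bases just before the constant AC of the nick site (name = the seven bases) was cut by 3 µM recombinant His6-SUMO-tagged Rep nickase domain (300 nM DNA, 50 mM HEPES pH 8.0, 50 mM NaCl, 1 mM MnCl2, 1 h, 37 °C, three replicates). Uncut DNA was amplified and sequenced.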

[2] = tested on: T2, Rep nickase domain of banana bunchy top virus
T2 sequence (Rep 1-94, printed without the tag): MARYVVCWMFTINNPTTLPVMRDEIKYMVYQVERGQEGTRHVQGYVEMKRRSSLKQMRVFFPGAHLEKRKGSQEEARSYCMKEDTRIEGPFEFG
Protocol: as §1

[3] = tested on: T3, Rep nickase domain of cabbage leaf curl virus
T3 sequence (Rep 1-116, printed without the tag): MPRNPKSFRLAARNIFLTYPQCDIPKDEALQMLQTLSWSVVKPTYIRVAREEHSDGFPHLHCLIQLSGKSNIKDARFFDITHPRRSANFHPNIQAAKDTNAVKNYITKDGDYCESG
Protocol: as §1

[4] = tested on: T4, Rep nickase domain of chickpea chlorotic dwarf virus
T4 sequence (Rep 1-124, printed without the tag): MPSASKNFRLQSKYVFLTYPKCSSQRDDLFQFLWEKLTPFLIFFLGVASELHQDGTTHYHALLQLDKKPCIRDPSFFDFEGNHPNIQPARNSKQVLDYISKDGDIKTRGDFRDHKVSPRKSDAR
Protocol: as §1

[5] = tested on: T5, Rep nickase domain of faba bean necrotic yellows virus
T5 sequence (Rep 1-98, printed without the tag): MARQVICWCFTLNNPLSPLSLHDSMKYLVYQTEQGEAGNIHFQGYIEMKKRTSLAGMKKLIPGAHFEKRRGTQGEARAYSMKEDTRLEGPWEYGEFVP
Protocol: as §1

[6] = tested on: T6, Rep nickase domain of maize striate mosaic virus
T6 sequence (Rep 1-117, printed without the tag): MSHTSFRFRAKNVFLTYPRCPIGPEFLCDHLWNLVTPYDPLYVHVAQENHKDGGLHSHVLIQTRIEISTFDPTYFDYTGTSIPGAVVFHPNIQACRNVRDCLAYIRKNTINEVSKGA
Protocol: as §1

[7] = tested on: T7, Rep nickase domain of porcine circovirus 2
T7 sequence (Rep 2-116, printed without the tag): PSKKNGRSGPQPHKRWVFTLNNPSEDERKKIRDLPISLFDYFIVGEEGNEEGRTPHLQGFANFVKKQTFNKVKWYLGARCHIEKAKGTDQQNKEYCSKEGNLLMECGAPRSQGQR
Protocol: as §1

[8] = tested on: T8, Rep nickase domain of tomato golden mosaic virus
T8 sequence (Rep 1-124, printed without the tag): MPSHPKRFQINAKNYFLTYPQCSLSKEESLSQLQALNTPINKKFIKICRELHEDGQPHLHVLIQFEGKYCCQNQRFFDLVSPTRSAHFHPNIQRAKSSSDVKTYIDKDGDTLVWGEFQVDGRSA
Protocol: as §1

[9] = tested on: T9, Rep nickase domain of tomato yellow leaf curl virus
T9 sequence (Rep 1-136, printed without the tag): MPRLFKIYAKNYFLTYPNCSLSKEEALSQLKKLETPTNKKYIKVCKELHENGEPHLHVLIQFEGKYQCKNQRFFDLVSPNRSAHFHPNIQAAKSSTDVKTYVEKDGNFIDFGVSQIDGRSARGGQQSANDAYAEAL
Protocol: as §1

[10] = tested on: T10, Rep nickase domain of wheat dwarf virus
T10 sequence (Rep 1-137, printed without the tag): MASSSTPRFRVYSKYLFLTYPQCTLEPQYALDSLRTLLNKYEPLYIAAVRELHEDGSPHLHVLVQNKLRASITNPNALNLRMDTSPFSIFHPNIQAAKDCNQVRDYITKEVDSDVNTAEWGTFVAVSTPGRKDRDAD
Protocol: as §1

Sequence	uncleaved DNA left (log2) [1]	uncleaved DNA left (log2) [2]	uncleaved DNA left (log2) [3]	uncleaved DNA left (log2) [4]	uncleaved DNA left (log2) [5]	uncleaved DNA left (log2) [6]	uncleaved DNA left (log2) [7]	uncleaved DNA left (log2) [8]	uncleaved DNA left (log2) [9]	uncleaved DNA left (log2) [10]
TCACCGT	-0.0593	0.025	-0.267	-0.95	-0.0307	-1.02	-0.117	-0.105	0.0154	-0.197
TCCCACT	0.015	-0.194	-0.0806	-2.15	-0.0501	-0.508	-0.28	-0.287	-0.244	-0.126
GCGTGAG	-0.0916	-0.129	-0.484	-0.202	-0.228	-0.976	0.0936	-0.0567	-0.0299	-0.00578
AGCGACG	0.092	0.0599	0.149	0.634	0.126	1.71	0.327	0.193	0.0403	0.204
TTATTAT	-2.04	-0.107	-1.77	-2.09	0.0119	-0.439	-1.68	-0.352	0.107	-0.384
TCGGAGT	0.0486	-0.133	0.0648	0.135	-0.0982	0.219	-0.055	0.00593	-0.135	-0.0184
CGGTTGC	-0.113	0.0592	-0.414	-0.322	-0.0468	-0.684	0.0649	-0.111	0.0958	-0.154
TACTTTG	0.000886	-0.0157	-0.534	-1.05	0.00902	-1.02	-0.208	-0.107	0.0236	-0.051
AAGATCA	-0.00423	0.048	0.0693	-1.16	-0.0666	0.0941	-1.03	-0.0101	-0.0613	0.103
ACACCCC	-0.0789	-0.142	-0.103	-0.0347	-0.00473	-0.178	-0.211	-0.0188	-0.271	-0.0658
GAACCGA	0.0278	0.0434	0.137	-0.072	0.0607	-0.0524	0.0396	0.0471	0.0168	0.178
GAGATAG	0.0643	0.0124	0.00507	0.644	0.0236	-0.367	0.0677	0.0247	0.0122	0.045
AGGGCCT	-0.0281	0.00396	0.387	0.713	0.00356	1.42	0.0737	0.0519	0.01	0.129
AAACCGG	-0.0108	-0.013	0.315	1.09	-0.0391	1.02	-0.0576	0.0981	-0.0889	0.0601
AGCGATT	0.0787	0.203	0.192	0.658	0.078	1.61	0.116	0.162	-0.0592	0.107
CTTGCTG	-0.0134	-0.0113	-0.38	-0.21	-0.025	-0.563	-0.000741	-0.192	-0.143	-0.214
TTAGTCG	-0.118	-0.154	-1.07	-0.298	-0.0246	-1.25	0.0658	-0.199	-0.186	-0.166
TAGTAAA	-0.0876	-0.05	0.264	-0.778	-0.0868	-0.106	-2.75	0.0973	-0.00415	-0.0264
TTCGCTC	0.0772	-0.0102	0.141	-0.561	-0.184	-0.761	0.0228	-0.0434	-0.00578	-0.0755
GTGGGAT	0.0551	0.103	0.522	1.69	0.113	2.02	0.225	0.121	-0.056	0.0725

Sequence	uncleaved DNA left (log2) [1]	uncleaved DNA left (log2) [2]	uncleaved DNA left (log2) [3]	uncleaved DNA left (log2) [4]	uncleaved DNA left (log2) [5]	uncleaved DNA left (log2) [6]	uncleaved DNA left (log2) [7]	uncleaved DNA left (log2) [8]	uncleaved DNA left (log2) [9]	uncleaved DNA left (log2) [10]
GTATTCA	-0.125	0.039	0.353	0.797	-0.00273	1.66	0.0518	0.0465	0.06	0.161
TTGGTCA	0.046	0.0591	0.215	-0.0175	0.0043	0.311	0.0716	0.0449	0.14	0.133
GTCAACT	0.0195	0.0565	0.229	0.118	-0.0067	1.55	-0.0319	0.0599	0.0279	0.0337
TAAGAAC	0.152	0.149	0.0444	-0.764	0.111	-0.281	0.216	0.146	0.0601	0.176
TGTATTA	-0.251	-0.0731	0.148	-0.216	-0.269	0.448	-0.116	-0.0991	0.025	-0.151
CCTGCCA	-0.0773	0.0223	-0.163	-0.863	0.00498	-0.634	-0.0243	0.00447	0.00822	-0.136
GAAACGT	0.0918	0.143	0.265	0.219	0.0625	0.356	0.196	0.0781	0.163	0.163
ACCTGTG	-0.0221	0.081	-0.507	0.787	0.0977	-0.354	0.121	-0.0426	0.0826	-0.13
ATTTTCC	-1.04	0.0338	0.0499	-0.386	0.0158	-0.631	-2.72	0.0534	-0.00056	0.0253
TTTGCTC	0.023	0.118	-0.153	-1.04	0.0439	-1.19	0.0694	-0.0961	0.0894	-0.111
CACCTTT	-0.184	-0.234	-0.456	-2.52	0.021	-0.658	-2.58	-0.237	-0.157	-0.203
GTCATGT	0.00916	0.101	0.365	0.829	0.000332	1.65	0.179	0.182	0.086	0.0665
TTTGTCT	0.0585	-0.0253	-0.192	-2.01	-0.0865	-0.941	-0.196	-0.0958	-0.0227	-0.137
ATGTATC	-0.118	-0.0511	0.0256	-0.122	-0.0989	-0.566	-0.221	-0.073	-0.0399	-0.0832
GGTATCG	-0.0474	-0.0725	-0.537	-0.412	-0.0561	-0.655	-0.0264	-0.0606	-0.0537	-0.163
TTCCTAC	-0.118	-0.156	0.028	-1.61	0.0466	-0.233	-0.168	-0.0318	0.0122	-0.00417
ACAAACC	-0.0843	-0.0198	-0.236	-0.755	-0.152	-0.794	-0.263	0.00825	-0.0273	0.0531
AATAAGT	-0.00644	-0.113	-0.0774	-1.14	0.0632	-1.03	-1.69	0.0965	0.0101	-0.121
TTAGCGC	0.0744	-0.107	-0.796	-0.315	-0.121	-1.06	0.101	-0.0813	0.00816	-0.0278
CTCCTTA	-0.0214	-0.0821	-0.0647	-1.2	0.0297	-0.535	-0.193	-0.208	-0.0294	0.0399

Sequence	uncleaved DNA left (log2) [1]	uncleaved DNA left (log2) [2]	uncleaved DNA left (log2) [3]	uncleaved DNA left (log2) [4]	uncleaved DNA left (log2) [5]	uncleaved DNA left (log2) [6]	uncleaved DNA left (log2) [7]	uncleaved DNA left (log2) [8]	uncleaved DNA left (log2) [9]	uncleaved DNA left (log2) [10]
GCTCGTT	0.0978	0.0907	0.234	0.345	-0.0203	0.187	-0.0282	0.056	0.207	0.0142
CTAGGGG	0.039	-0.099	0.197	0.613	-0.00448	0.242	0.25	0.0908	-0.0191	0.0604
CTAAATG	0.0245	0.178	-0.5	-0.563	0.000288	-1.02	0.102	0.0791	0.0938	0.00896
TATTAAC	-0.0106	0.0525	-0.175	-1.84	0.0766	-0.504	-0.186	-0.0181	0.0563	0.0245
CAATTGG	0.0452	-0.0425	-0.866	-0.652	0.0558	-1.29	0.149	0.00965	0.158	-0.0288
CTGTGGA	0.0946	-0.123	-0.0328	-0.267	-0.0816	-0.669	-0.0221	-0.0276	-0.0524	-0.0453
GGTGTGG	0.0587	-0.0724	0.179	0.464	-0.0447	0.339	-0.00475	-0.114	-0.061	-0.115
AATAACA	-0.00541	-0.0487	-0.721	-2.67	-0.0872	-1.31	-0.154	-0.0464	-0.0759	-0.124
CAGACCA	0.0279	-0.000652	0.0536	-1.06	0.113	0.351	-0.468	0.0677	-0.0748	0.095
GCAGCGG	0.11	-0.0513	-0.134	0.129	-0.0206	-0.174	0.221	0.127	-0.0159	-0.093
CCTTTGG	0.0395	-0.0079	-0.507	-0.383	-0.127	-0.956	0.261	0.0725	0.0543	-0.0261
TTATGGG	0.0627	-0.0298	-0.363	-0.416	0.0506	-0.747	0.168	0.0413	-0.0208	0.0316
GTCGGCT	0.00192	-0.112	0.164	0.624	-0.0784	0.92	0.0257	-0.103	-0.0531	0.0192
CTTATTC	-0.0786	-0.0321	-0.0707	-0.279	-0.0387	-0.977	-0.0914	-0.136	-0.0654	0.0211
CCTACTA	0.00903	0.00618	-0.511	-2.65	0.0837	-0.721	-0.131	-0.0137	-0.00227	-0.0221
CTACGAA	0.0489	0.00709	0.0504	-1.09	0.113	-0.71	0.168	0.141	0.0267	-0.0529
ACTACAC	0.0812	0.0529	-0.0897	-0.591	0.0231	-0.636	0.107	-0.0376	-0.0339	-0.0387
TCCTCTA	0.0738	-0.138	-0.0144	-0.996	0.0743	-0.221	-0.246	-0.00846	0.0273	-0.0167
CCTGTCG	-0.113	-0.124	-0.782	-0.268	0.0514	-0.941	-0.0405	-0.178	-0.123	-0.058
TGACGCG	-0.106	-0.134	-0.903	0.1	-0.0357	-0.703	-0.0611	-0.142	-0.121	-0.206
